Drawing on the RNAGym collection of RNA variant scans (doi:10.7554/elife.90254), this text covers self-cleavage for 167 variants.

Read counts are not given, so values of variants with three or more changes are uncertain.

B1: LINE1-mini (parent)
chain: GGCAGAGCUCAACACAGCGUGGCAAAGUGGCUGUGGCUAGACUGCC

This data set covers variants of B1. In words: self-cleavage, relative activity (ratio to wild type); higher = more cleavage; in vitro, sequencing; the parent is a self-cleaving ribozyme.
Turning to G7A U9G C10A U38A A41C, the self-cleavage stood at 0.01.
The value for G7C A11U C18A C45U C46U was 0.02; that for G7A G22U A25U C37A was 0.53; that for G7C A11G C23U G40U C46A was 0.01.
As for G7A G30U G36U, the self-cleavage was determined as 0.6.
On to G7A U9G G30U C46U, for which the self-cleavage worked out at 0.07.
On to G7A U9G C13G C31A U34A G35A C42G, for which the self-cleavage was found to be 0.
On to G7C C8A A24U C42U, for which the self-cleavage was 0.42.
G7A U9C C15A A24C C31A: the self-cleavage came out at 0.01.
With G7A U20A C37G, the self-cleavage came to 0.06.
Then G7A C23A C45A, with 0.05.
G7A C18U C23U: the self-cleavage came out at 0.19.
The value for G7C A11U G27U U28C U38A was 0; that for G7C A12C U20A was 0.01; that for G7C A24G U38A was 0.01.
With G7A C15U G17C G33U C42A C45U, the self-cleavage is 0.06.
Regarding G7A G33A C42A, the self-cleavage is 0.18.
The value for G7C C10U U20A G22C G27A G29A was 0.04; that for G7C C13U G21A was 0.06.
In the case of G7A C15G A24G G30U G35C, the self-cleavage was found to be 0.04.
For G7A G17C G36C, the self-cleavage was 0.13.
For the variant G7C C10A G22U A41C, the self-cleavage is 0.
For the variant G7A G33A G44A, the self-cleavage turned out to be 0.23.
Take G7A G21A C23U U32C: the self-cleavage is 0.07.
The value for G7C A25U G40U was 0.18; that for G7C C13G U34A U38C was 0.1.
For the variant G7C C10A A16U A41U, the self-cleavage turned out to be 0.
Consider G7A U9C C10G G27U A41C, for which the self-cleavage is 0.02.
Then G7C C10U G19U, with 0.01; and G7C C10U G19C, with 0.05; and G7A C18U U20G, with 0.28.
Consider G7A G22U G30C, for which the self-cleavage is 0.13.
G7C A16U G35U: the self-cleavage turned out to be 0.09.
Take G7C A11U G21C G27C: the self-cleavage turned out to be 0.03.
The value for G7A G22U C23A G35C U38C was 0.17; that for G7A C31U C45U was 0.07; that for G7A G21U G30U C37G U38A A41C was 0.12.
The value for G7C C10U C18G G40A was 0.02; that for G7C C13U G17U G22A A39C was 0.04.
Turning to G7A G22A C37G A41G C46G, the self-cleavage was 0.01.
In the case of G7C A16C A39U U43A, the self-cleavage turned out to be 0.1.
Then G7C C10G G17U G30A C31U U34C C42U, with 0.02.
In the case of G7C A11C U34A, the self-cleavage amounted to 0.01.
Take G7C A11G G29C U32A G40C: the self-cleavage worked out at 0.01.
Then G7A U20A G29C G33U G36A, with 0.24; and G7C C10G A11G G21U C46U, with 0.01; and G7A G17C G40U, with 0.32.
As to G7C C8G A14G C15U G21C C23G, the self-cleavage was found to be 0.09.
Take G7C C10A A41U: the self-cleavage worked out at 0.01.
Take G7C C10G A14G A24G U38G: the self-cleavage came out at 0.01.
As to G7A U20C G22C, the self-cleavage is 0.09.
With G7A U32A G33A C45A, the self-cleavage worked out at 0.18.
G7A G19C G30A: the self-cleavage came to 0.05.
As for G7A C18U G19C, the self-cleavage was found to be 0.06.
Consider G7C C10U G27C, for which the self-cleavage is 0.03.
With G7C C13A C37G, the self-cleavage worked out at 0.02.
As for G7C C10U U20G U28C, the self-cleavage stood at 0.02.
On to G7C C13U U38A G40A, for which the self-cleavage stood at 0.06.
For G7A G22U G44C, the self-cleavage stood at 0.34.
The value for G7A G17A U28C was 0.6; that for G7A C15A U38G was 0.02.
The value for G7C A11U A25U G27U was 0.02; that for G7A U20A G21U was 0.26.
For G7A U9A C31U, the self-cleavage came out at 0.04.
Then G7A G19A C23A A24U A25G, with 0.22.
Take G7A G36C C37G G40C: the self-cleavage worked out at 0.1.
For G7A G19C G27C G33C G40U U43G G44A, the self-cleavage turned out to be 0.02.
As for G7C A14G G44A, the self-cleavage was found to be 0.12.
Consider G7A G17A G30C A39C, for which the self-cleavage stood at 0.15.
Turning to G7C A16U A25U, the self-cleavage turned out to be 0.04.
As to G7A G29C G30A A41G, the self-cleavage is 0.04.
With G7A C15U G17U C18A G19A C46G, the self-cleavage stood at 0.07.
Turning to G7C A26C U43C, the self-cleavage came out at 0.08.
G7A G19U G44C C45A: the self-cleavage turned out to be 0.03.
For the variant G7A C18U G22U G35C A39U C42A C45U, the self-cleavage was 0.
Take G7A C18A G22A: the self-cleavage amounted to 0.07.
G7A G19U U28A: the self-cleavage was determined as 0.02.
G7A C23A C31G C46A: the self-cleavage is 0.04.
With G7C C8A G30C G40U C42U U43G, the self-cleavage turned out to be 0.13.
On to G7A U9G U28G, for which the self-cleavage turned out to be 0.07.
On to G7C C8A U20G A39G, for which the self-cleavage amounted to 0.09.
Then G7A C23G A25C, with 0.02.
In the case of G7A U34C G40C, the self-cleavage came out at 0.07.
Turning to G7C A14C U34A, the self-cleavage came to 0.
For G7C A12C G35U, the self-cleavage was found to be 0.02.
The value for G7A C18U G21U U34C U38A was 0.11; that for G7A G29A G33C was 0.05.
The value for G7A G27U G35U G44U was 0.72.
Then G7A G17U G22U, with 0.02.
On to G7A C37A A39U, for which the self-cleavage came to 0.31.
In the case of G7A C31U U32A G36C A39U A41C, the self-cleavage was found to be 0.02.
Turning to G7C A14C U20C C46U, the self-cleavage worked out at 0.02.
In the case of G7A G30C C46U, the self-cleavage turned out to be 0.11.
Turning to G7C C10A A25U G36C, the self-cleavage worked out at 0.02.
For the variant G7A G21C G33A U34G C37U, the self-cleavage was determined as 0.03.
In the case of G7C C8G G29A G40U, the self-cleavage stood at 0.07.
In the case of G7C A24U G33U, the self-cleavage stood at 0.08.
Take G7A U20A C31A G44U: the self-cleavage came to 0.02.
With G7A U9A A12C U20A G27C G40A A41C, the self-cleavage turned out to be 0.02.
Take G7C A14U A16G G40U G44C: the self-cleavage came out at 0.01.
As for G7A C15U G35A, the self-cleavage amounted to 1.38.
As to G7C C10A A12U G19A, the self-cleavage is 0.01.
G7A U34G U43G: the self-cleavage was 0.01.
Turning to G7C A12G G40U C42A, the self-cleavage came to 0.07.
Consider G7A C31U A41U, for which the self-cleavage is 0.07.
For the variant G7A U9G U28G C37U C45U, the self-cleavage came to 0.02.
The value for G7C C13G G33C was 0.03; that for G7C C13U G17U U28G C31U C45A was 0.13.
Turning to G7C C8G C13U G21C G35C U38C, the self-cleavage amounted to 0.03.
G7A G17U G21A G36U: the self-cleavage stood at 0.3.
Turning to G7C C10A G17A A24C, the self-cleavage amounted to 0.01.
For the variant G7A C15A C18A, the self-cleavage turned out to be 0.18.
Take G7C A26C C37G: the self-cleavage amounted to 0.
Turning to G7C A39C U43G C45A, the self-cleavage was 0.07.
As for G7C A16C A24G, the self-cleavage amounted to 0.
For G7C A26U U32A G36A, the self-cleavage was 0.06.
Turning to G7C C15U C23A G33C C45G, the self-cleavage was 0.03.
Consider G7C A12G U32C G44U, for which the self-cleavage is 0.05.
The value for G7C A14C G22C C23U was 0.01; that for G7A G27C G36U was 0.07; that for G7C C10G C23U G27C G30A was 0.01.
Take G7A G22C C23U G33A U38A A39U C42A: the self-cleavage was found to be 0.41.
Turning to G7C A16C C45A, the self-cleavage was 0.06.
The value for G7C C13G C15U G33U U34G was 0.15; that for G7C C13G G30U was 0.1; that for G7A G22A C23G A39U C42A was 0.12.
Turning to G7C C8A G22U G40U, the self-cleavage is 0.27.
With G7C C8A C37U, the self-cleavage was determined as 0.04.
The value for G7C C15A A39U was 0.01; that for G7C C13A C18A A41C C42U G44C C46A was 0.01; that for G7A G40C C46G was 0.12.
Consider G7A U32C U38A U43C, for which the self-cleavage is 0.15.
Then G7C A11U G17C A26G G33C, with 0.02.
The value for G7C C8G U28A C46U was 0.2; that for G7C A11G U20C was 0.02; that for G7A G33C G40U G44A was 0.03.
Regarding G7A C23G G27A, the self-cleavage was 0.04.
As to G7A C31G U32A, the self-cleavage turned out to be 0.02.
G7A C18G U20A: the self-cleavage is 0.03.
Regarding G7A G30U C31G U43A, the self-cleavage came to 0.11.
On to G7A U34C A41C C42G, for which the self-cleavage amounted to 0.11.
Then G7A U34C G40A A41C C42A G44C, with 0.06; and G7A U9G G35U U43A, with 0.03.
G7C C15U G21U U43C: the self-cleavage was determined as 0.39.
Consider G7A C18U G44C, for which the self-cleavage is 0.1.
G7C C10U G17U U32G G36C: the self-cleavage was 0.03.
For the variant G7C A11U G27U G33U, the self-cleavage is 0.
With G7A C18U C45A, the self-cleavage was 0.12.
As to G7A C31U C46U, the self-cleavage worked out at 0.05.
For G7A U9A A11U U32A, the self-cleavage amounted to 0.01.
Turning to G7A G17C A25C G40U, the self-cleavage stood at 0.03.
The value for G7A U9A C37U A41G was 0.06; that for G7A C15A U32G was 0.05; that for G7A U9C C10U G22U C23A was 0.
With G7C A14G C37A A39C C46A, the self-cleavage was 0.29.
Take G7A G22C A24U U32G: the self-cleavage was determined as 0.05.
For G7A C15U A41U C42U C45U, the self-cleavage turned out to be 0.89.
In the case of G7C C10G A11U G17A U32C G35U U38C, the self-cleavage is 0.02.
In the case of G7C A11C G33A, the self-cleavage is 0.04.
Regarding G7C A16G U20A A41G C45G, the self-cleavage was 0.02.
The value for G7C A16U C23G A26U G30U C42G was 0.05; that for G7A U9C C10A was 0.01; that for G7C A12G C23A G30A G36U was 0.03.
G7C C8G C31G: the self-cleavage came to 0.1.
Then G7A U9G G30U, with 0.07.
As to G7A G19A U28C G33A U38A G44A, the self-cleavage came to 0.2.
Take G7C C8G G35U C42U: the self-cleavage is 0.1.
